# Experimental data as given in paper PMC4336329 (PLoS ONE, 2015).
# Screen size: about 310,000 compounds; about 2,200 (0.71%) showed an effect of 50% or more. Effects have a minus sign here. The list shows a part of the results.
# Molecular target: human ether-à-go-go-related gene (hERG) potassium channel (human, UniProt Q12809)
# Experiment: primary screen, population patch clamp on CHO cells stably expressing hERG
# Chain of human ether-à-go-go-related gene (hERG) potassium channel (Q12809 whole entry, looked up): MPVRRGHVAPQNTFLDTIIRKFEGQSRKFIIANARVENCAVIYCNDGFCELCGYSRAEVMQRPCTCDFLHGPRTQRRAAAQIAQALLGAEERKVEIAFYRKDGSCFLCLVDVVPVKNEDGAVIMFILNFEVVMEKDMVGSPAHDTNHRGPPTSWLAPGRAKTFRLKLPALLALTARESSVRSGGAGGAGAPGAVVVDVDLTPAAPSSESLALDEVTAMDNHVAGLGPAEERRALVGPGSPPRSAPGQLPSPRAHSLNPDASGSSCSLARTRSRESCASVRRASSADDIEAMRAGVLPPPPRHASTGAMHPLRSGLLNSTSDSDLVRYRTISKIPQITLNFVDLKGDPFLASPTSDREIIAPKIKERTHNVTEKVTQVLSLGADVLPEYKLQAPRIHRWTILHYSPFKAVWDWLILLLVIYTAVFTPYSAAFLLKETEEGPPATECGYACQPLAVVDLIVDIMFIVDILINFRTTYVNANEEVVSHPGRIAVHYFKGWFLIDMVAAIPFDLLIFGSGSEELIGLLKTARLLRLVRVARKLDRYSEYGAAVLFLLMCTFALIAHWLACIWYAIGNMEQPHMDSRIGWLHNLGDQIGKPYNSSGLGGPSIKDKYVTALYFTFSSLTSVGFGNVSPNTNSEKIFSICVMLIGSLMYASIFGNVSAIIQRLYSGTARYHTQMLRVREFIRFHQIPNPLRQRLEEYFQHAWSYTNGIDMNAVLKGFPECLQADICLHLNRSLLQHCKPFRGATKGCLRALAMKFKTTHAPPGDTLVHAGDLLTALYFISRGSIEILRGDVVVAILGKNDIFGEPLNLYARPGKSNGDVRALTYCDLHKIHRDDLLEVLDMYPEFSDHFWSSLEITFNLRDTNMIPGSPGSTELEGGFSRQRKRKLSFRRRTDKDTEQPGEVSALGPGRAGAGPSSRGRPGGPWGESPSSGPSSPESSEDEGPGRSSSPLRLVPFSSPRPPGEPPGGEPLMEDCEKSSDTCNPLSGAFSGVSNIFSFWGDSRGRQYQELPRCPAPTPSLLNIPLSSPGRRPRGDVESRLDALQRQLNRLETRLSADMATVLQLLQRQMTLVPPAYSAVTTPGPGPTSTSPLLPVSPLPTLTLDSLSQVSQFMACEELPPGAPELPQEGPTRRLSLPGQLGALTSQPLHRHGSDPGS
row,Compound,"hERG current change (%, negative = inhibition) at 1uM [%]"
1,Cc1ccc(S(=O)(=O)NCc2csc(C)n2)c(C)c1,2.05
2,COC(=O)c1[nH]c2c(c1C)C(=O)CC(c1ccc(OC)cc1)C2 (centres unmarked),4.78
3,CN(C)C(=O)Cn1cnc2c(cnn2-c2ccc(F)cc2)c1=O,6.91
4,COc1cc(/C=C/C(=O)OCC(=O)NCc2ccco2)ccc1OC(F)F,12.1
5,COc1ccc(S(N)(=O)=O)cc1-c1nnc2c3ccccc3c(C)nn12,14.6
6,Cc1cccc(NC(=O)c2cc3cc([N+](=O)[O-])ccc3s2)n1,5.94
7,COc1ccc(NC(=O)CSc2nnc(-c3cccs3)n2C)cc1OC,10.8
8,CCOc1ccc(Nc2nc(N(C)c3ccccc3)nc(N)c2[N+](=O)[O-])cc1,10.4
9,CC(C)(C)NS(=O)(=O)c1ccc(CCC(=O)O)cc1,-2.17
10,O=C(Nc1ccc(Cl)cc1)Nc1nnc(CSCc2ccccc2Cl)s1,10.2
11,COc1ccccc1NC(=O)CCC(=O)Nc1nnc(C(F)(F)F)s1,6.82
12,COc1ccc(CNC(=O)C2CCCN2)cc1OC.O=C(O)C(=O)O (centres unmarked),11.5
13,CC(OC(=O)c1nsc(Cl)c1Cl)C(=O)NCc1ccc2c(c1)OCO2 (centres unmarked),-2.16
14,O=C(Nc1nc(-c2ccccn2)cs1)c1cc2ccccc2o1,11.8
15,COc1cccc(C2NC(CCSC)(C(=O)O)C3C(=O)N(C(C)C)C(=O)C23)c1O (centres unmarked),-11.9
16,O=C(CCn1cccc1)NCc1ccccc1,10.3
17,O=C(N=Nc1c(O)[nH]c2ccc(Br)cc12)c1cc(-c2cccc3ccccc23)n[nH]1,8.42
18,Cc1cccc(NC(=O)C(C)n2cc([N+](=O)[O-])cn2)n1 (centres unmarked),7.46
19,CCc1cccc(OCC2Cn3c(nc4c3c(=O)n(C)c(=O)n4C)O2)c1 (centres unmarked),9.79

row,Compound,"hERG current change (%, negative = inhibition) at 1uM [%]"
1,CCOC(=O)CC1CCCCN1C(=O)c1ccc2nc(CCOC)oc2c1 (centres unmarked),12.2
2,CN(CC(=O)Nc1ccc(F)cc1Cl)Cc1cccs1,11.6
3,COc1ccc(C(=O)Nc2cccc(/C(C)=N/NC(=O)c3ccc([N+](=O)[O-])c(C)c3)c2)cc1OC,-3.85
4,O=C(CN1CCN(c2ccccc2F)CC1)NCc1ccccc1,7.79
5,O=C(NC(=S)NNC(=O)c1cccs1)c1ccco1,6.64
6,COC(=O)C1=C(N)OC2=C(C(=O)CC(C)(C)C2)C1c1cc2c(cc1Cl)OCO2 (centres unmarked),15
7,CC1CC(C)CN(C(=O)C(NS(=O)(=O)c2ccc3c(c2)oc(=O)n3C)C(C)C)C1 (centres unmarked),6.54
8,COc1ccc(N2CC(C(=O)Nc3c(C(N)=O)oc4ccccc34)CC2=O)cc1 (centres unmarked),7.99
9,CCCCOc1ccc2c(c1)C(=O)c1cc(O)ccc1-2,10.1
10,CCN1/C(=C/c2cc[n+](C)cc2)C=Cc2cc(C)ccc21.[I-],-55.5
11,CCn1c2ccccc2c2cc(/C=N/O)ccc21,27.3
12,COC(=O)c1cccc(NC(=O)Cc2ccc(OC)cc2)c1C,15.3
13,Cc1ccn2c(-c3csc(NCc4ccccc4)n3)c(C)nc2c1.Cl,-4.54
14,Cc1oc(C(C)(C)C)c(CN2CCCC2)c1C(=O)O.Cl,15.5
15,CC(=O)[C@@]1(O)CC[C@H]2[C@@H]3C[C@H](C)C4=CC(=O)C=C[C@]4(C)[C@@]3(F)[C@@H](O)C[C@@]21C,13.3
16,CCNc1nc(SCCOc2ccccc2)nc(N(C)C)n1,3.28
17,COC(=O)C1CCN(Cc2nnc(-c3ccccc3)o2)CC1,12.2
18,O=C(OCn1nnc2ccccc2c1=O)c1cc2ccccc2o1,3.04
19,Cc1csc(N(C(=O)c2cccc(S(=O)(=O)N(C)C)c2)c2ccccc2)n1,2.97

row,Compound,"hERG current change (%, negative = inhibition) at 1uM [%]"
1,O=C(NC1CC1)C1=NOC(CNc2ncc(C(F)(F)F)cc2Cl)C1 (centres unmarked),-18.9
2,COc1ccc(OC)c(/C=N/c2c(-c3ccc(O)c(OC)c3)nc3ccccn23)c1,7.11
3,CC(=O)N1CCN(c2ccc(NCc3ccco3)cc2)CC1,4.78
4,CN(C)C(=O)c1nc2ccc(Cl)cn2c1CN1CCCC(OCc2cccnc2)C1 (centres unmarked),-19.4
5,CCOC(=O)N1CCN(C(=O)c2cn(CC)c3ccc(S(=O)(=O)N4CCCC4)cc3c2=O)CC1,5.16
6,O=C(CCNC(=O)c1ccc(Br)cc1)Nc1cc(Cl)ccc1-n1cncn1,-13.5
7,CCC(CC)C(=O)NCCc1ccc(F)cc1,10.2
8,CCOC(=O)c1c(C)[nH]c(C(=O)N2CCN(c3ccc(OC)cc3)CC2)c1C,10.8
9,COc1ccc(-n2c(=S)[nH]c3sc4c(c3c2=O)CCc2ccccc2-4)cc1,11.5
10,COCCCNc1nc2ccccc2nc1NS(=O)(=O)c1ccc(F)cc1,14.8
11,COC(=O)c1c(NC(=O)c2ccco2)sc2c1C(C(=O)OC)CC2 (centres unmarked),2.77
12,CC(=O)c1c(C)[nH]c(C(=O)COC(=O)c2c(C)noc2C)c1C,4.98
13,O=S(=O)(Cc1ccccc1)Nc1cccc(Br)c1,15.6
14,COc1ccccc1CNc1nc2nc(C)cc(=O)n2[nH]1,10.9
15,O=C(CCCc1c[nH]c2ccccc12)Nc1ccc(S(=O)(=O)Nc2ncccn2)cc1,-6.19
16,C=C(C)C1CC=C(C)/C(=N/Nc2ccccc2[N+](=O)[O-])C1 (centres unmarked),16.4
17,O=C(CCN1CCN(c2ccccc2F)CC1)Nc1ccc2c(c1)OCO2,-0.232
18,Cc1cccc(NC(=O)CNC(=O)COc2cc(F)ccc2[N+](=O)[O-])c1C,15.4
